Where a name gives a salt, the structure may show the parent alone. ± gives the standard deviation of the averaged measurements. In all, about 2,600 compounds were measured (“MBP+ mature oligodendrocyte number relative to DMSO vehicle control”: median about -0.34, highest 2% from about 13 on). The list shows a part of the results.
Test system: jimpy (Plp1 jimpy) mouse iPSC-derived oligodendrocyte progenitor cells
Experiment: MBP+ mature oligodendrocyte number relative to DMSO vehicle control (SDs above negative control mean); higher = more surviving jimpy oligodendrocytes (rescue)
Settings: 10 µM; 3 days
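Also: 10 µM single dose with 3-day oligodendrocyte differentiation.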

Going from O=C(CCCN1CCN(c2ccccn2)CC1)c1ccc(F)cc1 [Azaperone] to Cc1nc2ccccn2c(=O)c1CCN1CCC(C(=O)c2ccc(F)cc2)CC1 [Pirenperone], the “MBP+ mature oligodendrocyte number” value falls from 1.93 to -2.85.

Compared with Cc1ccc(=O)n(-c2ccccc2)c1 [Pirfenidone], CC(=O)/C=C1/C(=O)N(C)c2ccccc21 [Supercinnamaldehyde] is lower in “MBP+ mature oligodendrocyte number” value: 1.49 ± 1.9 for the first, -1.53 for the second.

First: CS(=O)(=O)c1ccc(-n2nc(C(F)(F)F)cc2-c2ccc(F)cc2)cc1
Second: Cc1ncc(-c2ccnc(Nc3ccc(S(C)(=O)=O)cc3)n2)n1C(C)C
The “MBP+ mature oligodendrocyte number” value of the first is higher: -0.559 for the first, < -6.01 for the second.

Compared with Cc1cc(CN2CCN(c3c(Br)cnc4nc(-c5ccc(N6CCN(C)CC6)cc5)[nH]c34)CC2)no1, Cc1c(CN2CCN(C(=O)[C@H](C)O)CC2)sc2c(N3CCOCC3)nc(-c3cnc(N)nc3)nc12 is lower in “MBP+ mature oligodendrocyte number” value: -5.93 for the first, < -6.01 for the second.

Compared with CN(C)C(=O)[C@H](O)[C@H](Cc1ccccc1)NC(=O)c1cc2cc(Cl)ccc2[nH]1, CCC(=O)c1ccc2c(c1)N(CCCN(C)C)c1ccccc1S2 [Propionylpromazine hydrochloride] is lower in “MBP+ mature oligodendrocyte number” value: 9.6 ± 4.4 for the first, -3.71 for the second.

Compared with O=C(Oc1cc(S(=O)(=O)c2ccccc2)ccc1[N+](=O)[O-])c1ccc(Cl)cc1, Cc1ccc(S(=O)(=O)Cc2nc(-c3ccc(C(=O)NCc4cccnc4)cc3)oc2C)cc1 is lower in “MBP+ mature oligodendrocyte number” value: 2.91 for the first, < -6.35 for the second.

Compared with COc1ccc(C2CC(=O)c3c(O)cc(OC4OC(COC5OC(C)C(O)C(O)C5O)C(O)C(O)C4O)cc3O2)cc1OC (stereo unspecified) [Methyl-Hesperidin], OCc1ccccc1O[C@@H]1O[C@H](CO)[C@@H](O)[C@H](O)[C@H]1O [Salicin] is lower in “MBP+ mature oligodendrocyte number” value: -0.612 for the first, -4.75 for the second.

Compared with N[C@@H](Cc1cc(I)c(Oc2ccc(O)c(I)c2)c(I)c1)C(=O)O [Liothyronine Sodium], N[C@@H](Cc1c[nH]c2ccccc12)C(=O)O [L-Tryptophan] is lower in “MBP+ mature oligodendrocyte number” value: 3.95 for the first, -0.14 for the second.

Going from CC(C)OC(=O)OCOP(=O)(CO[C@H](C)Cn1cnc2c(N)ncnc21)OCOC(=O)OC(C)C [Tenofovir Disoproxil Fumarate] to Nc1ncnc2c1nc(Br)n2C1OC2COP(=O)(O)O[C@@H]2C1O (stereo partly specified) [8-Bromo-cAMP sodium], the “MBP+ mature oligodendrocyte number” value rises from -3.29 to -0.119.

First: Nc1cc(Cl)c(NC2=NCCN2)c(Cl)c1 [p-Aminoclonidine hydrochloride]
Second: CCn1c(=O)[nH]c2cc(Cl)c(Cl)cc21
The “MBP+ mature oligodendrocyte number” value of the first is higher: -0.786 for the first, -0.91 for the second.

First: NO [Hydroxylamine hydrochloride]
Second: NC(=O)c1cnccn1 [Pyrazinamide]
The “MBP+ mature oligodendrocyte number” value of the first is higher: 0.712 for the first, -1.37 for the second.

Compared with Nc1nc(Cl)nc2c1ncn2[C@@H]1O[C@H](CO)[C@@H](O)[C@H]1O [2-Chloroadenosine], OC[C@H]1O[C@@H](n2cnc3c(N[C@H]4CCC[C@@H]4O)ncnc32)[C@H](O)[C@@H]1O is higher in “MBP+ mature oligodendrocyte number” value: -1.45 for the first, 0.549 for the second.

First: Cc1cccc(CC(=O)N2CCc3c2ccc(-c2cn(C)c4ncnc(N)c24)c3F)n1
Second: Cc1ccc(F)c(NC(=O)Nc2ccc(-c3cccc4[nH]nc(N)c34)cc2)c1 [Linifanib (ABT-869)]
The “MBP+ mature oligodendrocyte number” value of the first is higher: 7.69 ± 0.33 for the first, -5.74 for the second.

First: O=C(/C=C\n1cnc(-c2cc(C(F)(F)F)cc(C(F)(F)F)c2)n1)N1CC(F)(F)C1
Second: O=C(Nc1cc(C(F)(F)F)cc(C(F)(F)F)c1)Nc1c(Br)cc(Br)cc1-c1nn[nH]n1
The “MBP+ mature oligodendrocyte number” value of the first is lower: < -6.35 for the first, -1.85 for the second.

CC(C)(C)[N+]([O-])=Cc1ccc(S(=O)(=O)O)cc1S(=O)(=O)O and CC(=O)NS(=O)(=O)c1ccc(N)cc1 [Sulfacetamide Sodium] are the same in “MBP+ mature oligodendrocyte number” value: 2.35 for the first, 2.35 for the second.

Going from CN1CCN(C(c2ccccc2)c2ccccc2)CC1 [Cyclizine 2HCl] to CN1CCc2c(c3ccccc3n2Cc2ccc(C(=O)NO)cc2)C1 [Tubastatin A], the “MBP+ mature oligodendrocyte number” value rises from -0.776 to 8.6.

Compared with CC(C)OC(=O)C1=CN(C(=O)c2ccc(F)c(F)c2)CC(C)(C)c2c1[nH]c1ccccc21, CN1CCc2c(c3ccccc3n2Cc2ccc(C(=O)NO)cc2)C1 [Tubastatin A HCl] is lower in “MBP+ mature oligodendrocyte number” value: 1.14 for the first, < -6.01 for the second.

Going from CC[C@H](CO)Nc1nc(NCc2ccccc2)c2ncn(C(C)C)c2n1 [Roscovitine (Seliciclib,CYC202)] to N/C(=N\C(=O)c1nc(Cl)c(N)nc1N)NCc1ccccc1 [Benzamil hydrochloride], the “MBP+ mature oligodendrocyte number” value falls from 1.16 to -0.943.

First: CC[C@H](CO)Nc1nc(NCc2ccccc2)c2ncn(C(C)C)c2n1 [Roscovitine]
Second: O=C(CCNNC(=O)c1ccncc1)NCc1ccccc1 [Nialamide]
The “MBP+ mature oligodendrocyte number” value of the first is higher: 2.43 for the first, -0.519 for the second.

First: OCCN(CCO)c1nc(N2CCCCC2)c2nc(N(CCO)CCO)nc(N3CCCCC3)c2n1 [Dipyridamole]
Second: Cc1cnc(-c2cc(N3CCN(C(=O)CCS(C)(=O)=O)CC3)ncc2Cl)c(C)c1
The “MBP+ mature oligodendrocyte number” value of the first is higher: 9.37 ± 1.7 for the first, 0.184 for the second.

Going from Cc1ccc(NC(=O)c2cccc(C(C)(C)C#N)c2)cc1Nc1ccc2ncn(C)c(=O)c2c1 to CNC(=O)c1cc(Oc2ccc(NC(=O)Nc3ccc(Cl)c(C(F)(F)F)c3)cc2)ccn1 [Sorafenib], the “MBP+ mature oligodendrocyte number” value rises from -1.72 to 1.89.

First: CC[C@@H](C)Nc1cc(C(=O)N[C@H]2C[C@H]3CC[C@@H](C2)N3c2ccc(C(=O)C3CC3)cn2)c(C)cc1C(N)=O
Second: COc1cc2nccc(Oc3ccc(NC(=O)NC4CC4)c(Cl)c3)c2cc1C(N)=O [Lenvatinib (E7080)]
The “MBP+ mature oligodendrocyte number” value of the first is lower: < -6.35 for the first, -1.46 for the second.

First: C[N+](C)(C)CC(=O)O [Betaine hydrochloride]
Second: CSC(=N)NCCC[C@H](N)C(=O)O [S-Methyl-L-thiocitrulline acetate]
The “MBP+ mature oligodendrocyte number” value of the first is higher: -0.59 for the first, -0.872 for the second.

First: CN(c1ccccc1CNc1nc(Nc2ccc3c(c2)CC(=O)N3)ncc1C(F)(F)F)S(C)(=O)=O
Second: CNC(=O)c1cc(Oc2ccc(NC(=O)Nc3ccc(Cl)c(C(F)(F)F)c3)cc2)ccn1 [Sorafenib Tosylate]
The “MBP+ mature oligodendrocyte number” value of the first is lower: < -3.34 for the first, 4.73 for the second.

First: NS(=O)(=O)c1cc2c(cc1Cl)NC(C1CC3C=CC1C3)NS2(=O)=O (stereo unspecified) [Cyclothiazide]
Second: CN1C(CCl)Nc2cc(Cl)c(S(N)(=O)=O)cc2S1(=O)=O (stereo unspecified) [Methyclothiazide]
The “MBP+ mature oligodendrocyte number” value of the first is higher: 1.23 for the first, -4.83 for the second.

Compared with S=C(S)N1CCCC1 [Ammonium pyrrolidinedithiocarbamate], CCCn1c(=O)c2[nH]c(C3CCCC3)nc2n(CCC)c1=O [8-Cyclopentyl-1,3-dipropylxanthine] is higher in “MBP+ mature oligodendrocyte number” value: -1.89 for the first, 1.03 for the second.

Going from CCN(CC)CC(=O)Nc1c(C)cccc1C [Lidocaine hydrochloride] to CC(C)(CO)c1cc2cc(NC(=O)C3(c4ccc5c(c4)OC(F)(F)O5)CC3)c(F)cc2n1C[C@@H](O)CO, the “MBP+ mature oligodendrocyte number” value rises from -1.23 to 5.22.

Compared with CCN(CC)CC(=O)Nc1c(C)cccc1C [Lidocaine], CC(C=CC(=O)NO)=CC(C)C(=O)c1ccc(N(C)C)cc1 (stereo unspecified) [Trichostatin A (TSA)] is lower in “MBP+ mature oligodendrocyte number” value: 1.77 for the first, < -6.7 for the second.

Going from c1ccc2c(CC3=NCCN3)cccc2c1 [Naphazoline hydrochloride] to OCc1c[nH]c2ccccc12 [Indole-3-carbinol], the “MBP+ mature oligodendrocyte number” value rises from -0.48 to 1.46.

First: c1ccc2c(CC3=NCCN3)cccc2c1 [Naphazoline HCl]
Second: COC1(C2=NCCN2)COc2ccccc2O1 (stereo unspecified)
The “MBP+ mature oligodendrocyte number” value of the first is lower: 0.507 for the first, 0.896 for the second.

Going from CC(=O)OCC(=O)[C@@]12OC(C)(C)O[C@@H]1C[C@H]1[C@@H]3C[C@H](F)C4=CC(=O)C=C[C@]4(C)[C@@]3(F)[C@@H](O)C[C@@]12C [Fluocinonide] to COc1cccc2c1C(=O)c1c(O)c3c(c(O)c1C2=O)C[C@@](O)(C(C)=O)C[C@@H]3O[C@H]1C[C@H](N)[C@H](O)[C@H](C)O1 [Daunorubicin HCl], the “MBP+ mature oligodendrocyte number” value falls from 8.84 to -5.37.

First: C=CC1=C(C(=O)O)N2C(=O)[C@@H](NC(=O)/C(=N\O)c3csc(N)n3)[C@H]2SC1 [Cefdinir]
Second: Nc1cc(=O)[nH]c(N)n1 [2,4-Diamino-6-pyrimidinone]
The “MBP+ mature oligodendrocyte number” value of the first is lower: -1.82 for the first, -0.805 for the second.

First: Cc1cn([C@H]2C=C[C@@H](CO)O2)c(=O)[nH]c1=O [Stavudine (d4T)]
Second: CC[C@@H]1C(=O)OC[C@@H]1Cc1cncn1C [Pilocarpine HCl]
The “MBP+ mature oligodendrocyte number” value of the first is higher: 1.24 for the first, -1.62 for the second.

First: C=C1CC[C@@H]2[C@](C)(CO)[C@H](O)CC[C@@]2(C)[C@@H]1C/C=C1/C(=O)OC[C@H]1O [Andrographolide]
Second: CCC(C)(Oc1ccc(C2(c3ccc(OC(C)(CC)C(=O)O)cc3)CCCCC2)cc1)C(=O)O (stereo unspecified) [Clinofibrate]
The “MBP+ mature oligodendrocyte number” value of the first is lower: < -4.81 for the first, 7.64 for the second.

First: O=C(Nc1cccc(C(=O)Nc2ccc(S(=O)(=O)O)c3cc(S(=O)(=O)O)cc(S(=O)(=O)O)c23)c1)Nc1cccc(C(=O)Nc2ccc(S(=O)(=O)O)c3cc(S(=O)(=O)O)cc(S(=O)(=O)O)c23)c1
Second: N#CCNC(=O)c1ccc(-c2ccnc(Nc3ccc(N4CCOCC4)cc3)n2)cc1
The “MBP+ mature oligodendrocyte number” value of the first is higher: 0.813 for the first, < -4.81 for the second.

Compared with O=C(/C=C/c1ccc(O)cc1)c1ccc(O)cc1O [Isoliquiritigenin], Cn1cnc2c(F)c(Nc3ccc(Br)cc3F)c(C(=O)NOCCO)cc21 is lower in “MBP+ mature oligodendrocyte number” value: -0.717 ± 0.17 for the first, -2.04 for the second.

First: CS(=O)(=O)OCCCCOS(C)(=O)=O [Busulfan]
Second: CC[C@@H]1C(=O)OC[C@@H]1Cc1cncn1C [Pilocarpine nitrate]
The “MBP+ mature oligodendrocyte number” value of the first is higher: 0.973 for the first, -2.56 for the second.

Going from C[C@@H](O[C@H]1OCCN(Cc2nn(P(=O)(O)O)c(=O)[nH]2)[C@H]1c1ccc(F)cc1)c1cc(C(F)(F)F)cc(C(F)(F)F)c1 [Fosaprepitant dimeglumine salt] to CSc1nc2cc(Cl)c(Oc3cccc(Cl)c3Cl)cc2[nH]1 [Triclabendazole], the “MBP+ mature oligodendrocyte number” value rises from -2.44 to 4.29.

Going from CN1C(=O)CC[C@H]1c1cccnc1 [(-)-Cotinine] to CC[C@@H]1C(=O)OC[C@@H]1Cc1cncn1C [(+)-Pilocarpine hydrochloride], the “MBP+ mature oligodendrocyte number” value falls from 0.0777 to -1.46.

Going from C#Cc1cccc(Nc2ncnc3cc(OCCOC)c(OCCO)cc23)c1 to NC(=O)c1cnccn1 [Pyrazinecarboxamide], the “MBP+ mature oligodendrocyte number” value rises from -4.7 to 0.931.

In the case of Nc1nc(N)c(N=O)c(OCC2CCCCC2)n1, the “MBP+ mature oligodendrocyte number” value is reported as -5.17.

— the supplement of paper PMC6135742
